The supplement of paper PMC10126150
Sequences with one replicate were seen in a single cluster, so their values are uncertain.

Test system: ATP
Test: switch fluorescence ratio, 500 uM ATP over buffer (Cy3 cluster intensity, sum of 5 cycles each) (fold (ratio)); higher = stronger signal-on switching upon ATP binding; sequences stand for … in TCGTCGGCAGCGTCAGATGTGTATAAGAGACAGTTTTTTTTTTTTTTTTTTTTTTTTT…TC
Conditions: aptamer strand: ATP DNA aptamer (quencher-CACCTGGGGGAGTATTGCGGAGGAAGG + anchor), 100 nM annealed; ATP concentration: 500 uM; one replicate
Procedure, shortened: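 Switching-strand clusters labelled with Cy3 on a modified Illumina MiSeq flow-cell were annealed to 100 nM quencher-labelled ATP aptamer, imaged in selection buffer, and re-imaged after 15 min with 500 uM ATP at 22 °C. This was done over five cycles with NaOH stripping and re-annealing in between. The fluorescence ratio is summed target-cycle over summed buffer-cycle Cy3 intensity per cluster, averaged per switch-domain sequence, excluding clusters outside 100-1000 RFU.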
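Also: ATP exposure 15 min at 22 °C before imaging.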

Sequence | switch fluorescence ratio
AGTCTCGCTC | 1.02
TATGGGACG | 0.998
ATGATTAAAG | 1
AACCGTTTCG | 1.09
TACGGGTAC | 3.52
ACTTATTCGA | 1.04
GTTTTATATT | 1.02
ATATCGATAC | 1.54
ACTGATAGGT | 0.998
CATTGACCTA | 1.07
GAGCTGCCCC | 1.04
TTCTTATAC | 1.05
TATTCGAGGT | 1.02
ACAGAATAAA | 1
ACCCTCCCTG | 1.16
GACTTATATG | 0.994
TAAGGTAATC | 0.978
AGGTCTTGTA | 0.965
AAATTCCG | 0.999
CCTCTTATG | 1.07
CGAAATAAGC | 1.09
AGCCTTTACG | 0.998
CTCTGTGCCC | 1.1
TAGAACTA | 0.989
CGTTACCCCT | 1.05
AACGTTAACT | 0.985

Sequence | switch fluorescence ratio
GTAGGGTGAG | 0.989
GGTAAAATGG | 1.03
AAGGAGAAAG | 1.21
AGTTGTACGT | 0.967
ATGGATCGTT | 0.975
GAACCCCAGC | 1.27
GTGCACCGGT | 0.992
GTACGGCG | 0.968
GGCGGCCCCT | 1.02
AAGGGTAATC | 1.01
TTGTTTGCTG | 0.995
TACAAGTGGT | 1.02
ACGTACAGTC | 1.52
TTAGGGCGT | 0.959
GTGGGGGTAC | 1.01
ATCAGTAGTA | 1.01
ACTTTGGGGC | 1.01
CCCAAAATGG | 1.05
TATGTGCACG | 1.05
AGTGATATCA | 1.02
GGTGACTTGT | 0.995
CCACGGATAT | 1.13
CCCCTAAGCG | 1.08
ACGGACGTCA | 1.01
CTGAAATGAT | 1.03
AAAAAACCCG | 1.07

Sequence | switch fluorescence ratio
ATTATCCACC | 1.09
GTTCAATCCC | 1
GACAGCGATT | 1.21
GAGATTTAA | 0.991
CTCCAAAATT | 2.07
TATTATTCGC | 1.07
AGCGTGAAAA | 1.09
AGCTTGCGGT | 1.01
CGTCACTGCA | 1.03
GAATTAGAAC | 1.02
ACAAGGTAAA | 1
TTAGTACTC | 1
TTTGGATC | 1.04
AACTGCACGC | 1.4
GTTGTTCTTT | 0.98
GAGTTAGAA | 0.989
TTATAAGGCT | 1
ATCTAAGTTG | 0.998
ATAGGCGTGG | 0.987
CGGATCTGTT | 1.01
GTAGGCGACT | 0.986
CTTGTTGCTG | 1.02
GAGGTGACGT | 0.985
AATACGGAG | 0.946
TTATACTAGT | 0.972
CTTCGCGGAA | 1.35

Sequence | switch fluorescence ratio
AATGGTAGCG | 1.04
GACCAACGGT | 0.955
GATGGAATTT | 1.06
TTTACCTACG | 1.44
ATCATTACAT | 1.05
TTAATCTCAT | 0.949
CTTGGCCCGC | 1.09
AGGTCTTTGT | 0.987
ATCGTGTAG | 1.01
CAGGAAACGC | 1.09
TTGATTAGAC | 1.03
CAGGGGAGAA | 1.04
CAGAGTTGG | 1
AGGGGCTGTT | 0.937
GGGTAGGTTC | 1.08
ACTCGATGT | 1.01
TTTGGAAACT | 1.06
GGCGTGCCCA | 1.05
GTAGGGGGG | 1
AAAGTAAATT | 1.01
TTACGGCGAT | 1.08
TTAAAGAACT | 1.01
GTATTGGGGA | 1.01
TATTACGTGC | 1.02
ATCACCAGAA | 1.01
GCGGAAATGC | 1.2

Sequence | switch fluorescence ratio
AGCTCAAGTG | 1.01
GATGTTTCCT | 0.955
GATCGTGTGA | 0.964
TACAGTGTCA | 1.02
CATGGGTCCG | 0.986
CGCCTAAGCC | 0.994
AGGGCGCTAG | 0.958
ACGAAGTAAA | 1.02
ACGCAGTCC | 1.47
ACACGGGGCA | 1.01
CGGATGGGG | 1.07
TTAGGAGGA | 0.955
CGTCGGTCAA | 2.23
CCTTGGGAGG | 0.945
TTTGGAGAGC | 1.12
TACTTCGTCT | 1.03
ATTTTAGGTA | 0.956
AGGAAAACGA | 0.995
GGTGCACCTT | 0.996
ATGTTGGCTA | 1.04
TCAGAGGGC | 1.07
ATCCGATGTC | 1.24
ACAGGGGATT | 0.977
AAGTATCTTC | 0.98
CAGTGGTCTG | 1.04
CTTTTCCTTA | 1

Sequence | switch fluorescence ratio
CTCAGCAAGA | 2.07
CGCAGATGTT | 0.974
GACATGTGAA | 1.04
AACTTTAGCT | 1.02
GGTCCGGAGG | 1
TGTTACTATT | 1.04
GGTCGGCAGC | 0.982
TTGCTATCTA | 1.05
GTATGTGCGA | 1.02
TTTGGTTAAC | 1.04
ACGTCGCAA | 1.79
ATATAGCGGA | 0.993
TGTATTTCCC | 0.985
ATGGATACCC | 1.02
CTGTGCATGT | 1.1
AACCGAAGCG | 1.25
GCGAAAAACA | 0.997
GAACGAATTT | 1.02
CGTGAAAGGC | 1.02
GGGTTGCGCG | 0.994
GACTTTTTCC | 1.09
TCGACAATAT | 3.34
ACGATGTTCG | 0.984
CATGGGACCT | 1.11
GCGGTCTGGA | 1.02
GACTGTGCTA | 1.12

Sequence | switch fluorescence ratio
TAGTGTTCT | 0.958
CATTGGCAAG | 1.15
GTGTATATGT | 0.98
AGTGATTGC | 1.02
CGATATATCT | 0.992
CCTGTGGAGG | 1
CGGAGGTCCC | 1.04
GAGCGAGAAA | 0.987
CGCAGGAAGA | 0.991
TGCAGCCAGT | 0.981
AATAGACCGC | 1.1
CCTTGGGCTA | 6.07
GCCGCTGTAT | 1.19
ACGGGTTCAT | 1.06
TAGCGGTTTG | 0.947
AAATTAAGTG | 0.903
CATTGCCACG | 1.01
CAGGGGGTGA | 1
CTTTGAGGGG | 1.01
AATACGTAA | 1.35
CCTTTGAT | 0.99
ACGGCGTTAC | 1.42
CACTATCAGC | 1.07
AATTGAGGAG | 0.948
TTCGTTTCAG | 1.01
TATATGTAGT | 0.986

Sequence | switch fluorescence ratio
CAGGCTTGGG | 1.04
CATCACATTT | 1.05
TGCCATTTTT | 1.05
AAGTGGAGCG | 0.968
CCATAATTCA | 0.987
AATAGTGAG | 0.971
GATGTCGTAA | 1.01
TAACTTTTGC | 0.996
TAAAATGCAA | 1.39
TTTCCTACCT | 1.05
ATGACCCGTT | 1.01
TCTCGGCACC | 3.18
CCCCCTGCAG | 2.51
CGATCACGTT | 0.988
TTGACGACGT | 1.18
CATTGCGAGC | 1.04
ACCTTGAACG | 1.16
TGACTGCAGC | 1.04
GGGCTGCG | 1
